About 2,500 (3.4%) of roughly 73,000 compounds were called active. Inconclusive means that the source gave no clear call. Such entries were picked first, then a sample of the others. Calls come from the whole dose curve; as a rule, active = well fitted inhibition curve with a large enough effect; inconclusive = small, poorly fitted or top-dose-only effect; inactive = no such curve, though single readings can be large or run the other way. Where the call is inconclusive, the potency comes from a doubtful curve fit.
These molecules were tested against 3-hydroxyacyl-CoA dehydrogenase type-2 (Homo sapiens) (UniProt Q99714) (assay: qHTS Assay for Inhibitors of HADH2 (Hydroxyacyl-Coenzyme A Dehydrogenase, Type II)). Settings: recombinant HADH2, NADH fluorescence, beta-hydroxybutyryl-CoA; activity change, negative = inhibition: at 57.1 µM (top of the series).
How it was run: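 NADH fluorescence (ex 360/em 450 nm) read every 30 s for 4 min; activity taken as last-minus-first time point difference. Enzyme 20 nM, NAD+ 1 mM, beta-hydroxybutyryl-CoA 90 uM, pH 9.0 Tris buffer.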
% is set by controls: 0 for no effect and ±100 for the full control effect; potency is the fitted concentration of half-maximal effect; tags give direction and shape of the fitted curve.
Note: nearly all actives have a fitted effect of over 60% in size.

UniProt Q99714, sequence (Q99714 whole entry, looked up): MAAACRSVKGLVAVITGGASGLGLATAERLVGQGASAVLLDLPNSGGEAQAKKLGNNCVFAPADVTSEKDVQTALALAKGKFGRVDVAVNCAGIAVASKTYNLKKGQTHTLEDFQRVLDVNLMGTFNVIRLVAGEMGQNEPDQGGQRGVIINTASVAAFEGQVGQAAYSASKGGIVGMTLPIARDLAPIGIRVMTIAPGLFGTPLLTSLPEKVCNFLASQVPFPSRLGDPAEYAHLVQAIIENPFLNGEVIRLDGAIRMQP
UniProt Q99714, sequence (Q99714 whole entry, looked up): as above

SMILES | Potency | activity change, negative = inhibition
CN1C(=O)/C(=C2/C=CC=CN2C)OC1=S | inconclusive: 3.98 µM [inhibitor, partial curve] | 
COc1ccc(-c2cc(C(F)(F)F)n3nc(C(=O)N4CCCCC4)cc3n2)cc1 | inconclusive: 39.8 µM [inhibitor, single point] | 
O=C(O)CSCCc1ccccc1 |  | inactive: -10.2% [at 11.4 µM]
Cc1nc(NC(=O)CSc2nnnn2Cc2ccccc2)sc1C |  | inactive: -3.24%
Brc1ccc(CSc2ncnc3nc[nH]c23)cc1 | inconclusive: 20 µM [inhibitor, partial curve] | 
FC(F)(F)c1cc(CO[C@@H]2CCCN[C@H]2c2ccccc2)cc(C(F)(F)F)c1 | inconclusive: 10 µM [inhibitor, partial curve, poor fit] | 
O=C1CSC(=S)N1Cc1cccnc1 | inconclusive: 3.16 µM [inhibitor, full curve] | 
CN(C)c1ccc(C(=S)N2CCN(c3ccccc3)CC2)cc1 |  | inactive: 8.49%
Cc1cc(=O)n2nc(-c3ccccc3)sc2n1 | inconclusive: 39.8 µM [inhibitor, single point] | 
COc1ccc(NC(=O)c2cc(C3CC3)on2)c(OC)c1 | inconclusive: 6.31 µM [inhibitor, single point] | 
Cc1nc2ccc(N)cc2c(=O)n1Cc1ccc(Cl)cc1 | active: 31.6 µM | 
CC(C)N(CCNC(=O)C1CCN(S(=O)(=O)N2CCOCC2)CC1)Cc1ccccc1 |  | inactive: 5.38%
O=C(O)CCC(=O)Nc1ccccc1C(=O)NC1CCCCC1 | inconclusive: 6.31 µM [inhibitor, single point] | 
O=C(Nc1cccc2ccccc12)N1CCN(c2ccc(F)cc2)CC1 | inconclusive: 3.16 µM [inhibitor, single point] | 
CN(C)C(=O)c1ccc(-c2cc(-n3ccnc3)ncn2)cc1 | inconclusive: 31.6 µM [inhibitor, single point] | 
CN(C)c1ccc(-c2nn3c(-c4ccccc4Cl)nnc3s2)cc1 | active: 31.6 µM | 
CNc1nc(-c2ccccc2Cl)nc2ccccc12 | inconclusive: 25.1 µM [inhibitor, partial curve] | 
O=C(CCCN1C(=O)c2ccccc2C1=O)Oc1ccc(F)cc1 | inconclusive: 1.58 µM [inhibitor, single point] | 
O=C1OCCC1Sc1ncnc2sccc12 (stereo not given) | inconclusive: 3.16 µM [inhibitor, partial curve, poor fit] | 
O=C(NC(c1ccccc1)c1ccccc1)C1CCCN(S(=O)(=O)c2cnc[nH]2)C1 (stereo not given) |  | inactive: 7.02%
CCS(=O)(=O)N1CCN(c2ccccc2F)CC1 | inconclusive: 5.01 µM [inhibitor, full curve] | 
N#CC(C#SN)=C1CCCCC1 | inconclusive: 15.8 µM [inhibitor, partial curve] | 
C=CCNC(=O)c1oc2ccc(S(=O)(=O)N(CC)CC)cc2c1C | inconclusive: 31.6 µM [inhibitor, single point] | 
O=C(NCc1ccc2c(c1)OCO2)c1c[nH]c2ccc(S(=O)(=O)N3CCOCC3)cc2c1=O | active: 12.6 µM | 
CC(=O)NC(CCS(C)(=O)=O)C(=O)Nc1ccc(Oc2ccccc2)cc1 (stereo not given) |  | inactive: 10.9%

SMILES | Potency | activity change, negative = inhibition
CC(=O)NCCc1ccc(O)c(O)c1 | active: 0.501 µM | 
CCOC(=O)c1sc(N)nc1-c1ccccc1 | inconclusive: 15.8 µM [inhibitor, partial curve] | 
O=C(O)c1ccc(CSCc2ccccc2F)o1 |  | inactive: -12.3%
O=C(c1cnccn1)N1CCC2(CCCN(c3cccc(-c4ccccc4)c3)C2)CC1 |  | inactive: 3.96%
CCS(=O)(=O)c1ccc(NC(=O)c2ccccc2Cl)c(O)c1 |  | inactive: -6.83%
CC(C)(C)c1nnc2sc(SC/C(O)=C(\C#N)c3nc4ccccc4[nH]3)nn2c1=O | inconclusive: 39.8 µM [inhibitor, single point] | 
C/C(N)=C(/C#N)C(=O)CSc1nnc(NC(C)C)s1 | inconclusive: 20 µM [inhibitor, single point] | 
C/C(=C\c1ccc(Cl)cc1)C(C)(C)C(=O)O |  | inactive: -0.894% [at 11.4 µM]
CCCCCCCCO | inconclusive: 39.8 µM [inhibitor, single point] | 
CCn1c(N)c(C(N)=O)sc1=S | active: 25.1 µM | 
CCN(CC)CCCC(C)n1c(-c2ccccc2)nc2c(NCCOC)nc(C)nc21 (stereo not given) | inconclusive: 39.8 µM [inhibitor, single point] | 
O=c1c2ccccc2nc2n1CCN2 | inconclusive: 39.8 µM [inhibitor, single point] | 
CC(=O)Nc1c(C#N)c(C(C)(C)C)cn1C |  | inactive: 4.53%
CC(C)CSc1nc2c(c(=O)[nH]c(=O)n2C)n1CC(O)COc1cccc2ccccc12 (stereo not given) | inconclusive: 25.1 µM [inhibitor, partial curve] | 
COc1ccccc1CNS(=O)(=O)c1ccc2[nH]cc(C(=O)O)c(=O)c2c1 | inconclusive: 20 µM [inhibitor, single point] | 
CCc1c(C)c2cc(Cl)c(O)c(CN(CC)CC)c2oc1=O | active: 2.51 µM | 
COc1ccc2cc(C(c3nnnn3CC3CCCO3)N3CCOCC3)c(=O)[nH]c2c1 (stereo not given) | inconclusive: 31.6 µM [inhibitor, single point] | 
CCOC(=O)C1CCN(c2nc(-c3ccccc3)nc3c2oc2ccccc23)CC1 | inconclusive: 31.6 µM [inhibitor, single point] | 
CCc1nc(SCC(=O)Nc2ccc(C(=O)O)cc2)n[nH]1 | inconclusive: 15.8 µM [inhibitor, partial curve] | 
CCCCn1c(SCC2CCCCO2)nc2cc(S(N)(=O)=O)ccc21 (stereo not given) |  | inactive: -4%
CC(Oc1ccc(-c2ccccc2)cc1)C(=O)N1CCOCC1 (stereo not given) | inconclusive: 25.1 µM [inhibitor, partial curve] | 
CN(C)CCOC(c1ccccc1)c1ccccc1 (tested in a mixture with another compound) | inconclusive: 39.8 µM [inhibitor, single point] | 
COc1ccc2nc(N3CCCCC3)c(C#N)cc2c1 |  | inactive: 8.9%
CC#CCOCC/C=C1/c2ccccc2C(OC)C1C (stereo not given) |  | inactive: 0.929% [at 11.4 µM]
CCCCCCNc1cc2n(c(=O)n1)CCc1cc(OC)c(OC)cc1-2 | inconclusive: 39.8 µM [inhibitor, single point] | 

SMILES | Potency | activity change, negative = inhibition
O=C(NCc1cccnc1)NC1(C(F)(F)F)Oc2ccccc2O1 | inconclusive: 20 µM [inhibitor, partial curve] | 
COc1cc(OC)c(-c2nn3c(-c4ccco4)nnc3s2)cc1OC | active: 39.8 µM | 
NC(=O)c1ccsc1NC(=O)C1CCCN1S(=O)(=O)c1ccc(Cl)cc1 (stereo not given) | inconclusive: 0.0251 µM [inhibitor, full curve, poor fit] | 
COC(=O)C1(Cc2ccccc2)C=C2C(=C(c3ccccc3)C(=O)C2C)CN1 (stereo not given) |  | inactive: -20.6%
N#Cc1cn(-c2ccccc2)nc1-c1cc2ccccc2oc1=O | active: 25.1 µM | 
Cc1noc(C)c1S(=O)(=O)N1CCC(C(=O)N2CCN(c3ccc(Cl)cc3)CC2)CC1 |  | inactive: -0.617%
CCOC(=O)c1ccccc1NC1c2ccccc2C(=O)N1c1ccc(C)cn1 (stereo not given) |  | inactive: 7.62%
Cc1cc(OCC(=O)Nc2ccncc2)ccc1Br |  | inactive: 4%
COc1ccc(C(c2c(O)ccc3ccccc23)N2CCOCC2)c(OC)c1 (stereo not given) | inconclusive: 25.1 µM [inhibitor, single point] | 
CC(Oc1ccc(Cl)cc1Cl)c1nc(-c2ccc(NC(=O)c3cccnc3)cc2)no1 (stereo not given) |  | inactive: -28.5%
CCc1ccc(C(=O)Nc2ccc(S(=O)(=O)Nc3nc(C)cc(C)n3)cc2)o1 | inconclusive: 5.01 µM [inhibitor, single point] | 
COc1ccccc1NC(=O)CSc1ccc2nnc(-c3cccnc3)n2n1 | inconclusive: 25.1 µM [inhibitor, single point] | 
CCOC(=O)CSc1nc(C)c(C(=O)OCC)s1 | inconclusive: 25.1 µM [inhibitor, partial curve] | 
CC(C)=NOC[C@@H](C)[C@H](OCc1ccccc1)C(C)C |  | inactive: -11.2% [at 11.4 µM]
O=C(CCN1CCc2ccccc2C1)Nc1ccccc1 |  | inactive: 11.9% [at 11.4 µM]
O=C(Nc1ccccc1N1CCOCC1)c1ccc2c(c1)C(=O)N(Cc1ccncc1)C2=O | inconclusive: 6.31 µM [inhibitor, single point] | 
COc1cc(C2C(C#N)=C(N)Oc3n[nH]c(-c4ccccn4)c32)cc(OC)c1OC (stereo not given) | inconclusive: 12.6 µM [inhibitor, partial curve] | 
Cc1ncoc1C(=O)Nc1cccc(Cl)c1 | inconclusive: 39.8 µM [inhibitor, single point] | 
c1ccc([C@H]2NCCc3c2[nH]c2ccccc32)cc1 |  | inactive: 12.3% [at 11.4 µM]
Cc1ccc2[nH]c(=O)c3cc(C(=O)N(C)Cc4ccco4)sc3c2c1 | inconclusive: 39.8 µM [inhibitor, single point] | 
O=c1[nH]c(CSc2nc3ccccc3o2)nc2c1cnn2-c1ccccc1 | inconclusive: 5.01 µM [inhibitor, single point] | 
CC(C)COC(=O)Cc1c(O)c2ccccc2[nH]c1=O | inconclusive: 31.6 µM [inhibitor, single point] | 
Cc1nnc(NC(=O)C2CCCO2)s1 (stereo not given) | inconclusive: 25.1 µM [inhibitor, single point] | 
CCOC(=O)C1CCN(S(=O)(=O)c2ccc(-c3nc4ccccc4s3)s2)CC1 | inconclusive: 39.8 µM [inhibitor, single point] | 
c1ccc2sc(-c3ccc4c(c3)OCO4)nc2c1 | inconclusive: 39.8 µM [inhibitor, single point] | 

— PubChem BioAssay AID886 (National Center for Advancing Translational Sciences (NCATS), 2007)
